Reference: the supplement of paper PMC10126150
Values marked as one replicate rest on one cluster of the flow cell; about a third of the high ones do not repeat.

These sequences were tested on ATP (assay: switch fluorescence ratio, 500 uM ATP over buffer (Cy3 cluster intensity, sum of 5 cycles each) (fold (ratio)); higher = stronger signal-on switching upon ATP binding; sequences stand for … in TCGTCGGCAGCGTCAGATGTGTATAAGAGACAGTTTTTTTTTTTTTTTTTTTTTTTTT…TC). Details: aptamer strand: ATP DNA aptamer (quencher-CACCTGGGGGAGTATTGCGGAGGAAGG + anchor), 100 nM annealed; ATP concentration: 500 uM; one replicate.
Method in brief: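 Values give the fluorescence ratio for each switch-domain sequence, averaged from per-cluster ratios of summed target-cycle to summed buffer-cycle Cy3 intensity. The Cy3-labelled switching-strand clusters sat on a modified Illumina MiSeq flow-cell, were annealed to 100 nM quencher-labelled ATP aptamer, and were imaged in selection buffer, then after 15 min with 500 uM ATP at 22 °C. Five cycles ran with NaOH stripping and re-annealing between them, and clusters outside 100-1000 RFU were excluded.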
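Also: ATP exposure 15 min at 22 °C before imaging.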

Sequence | switch fluorescence ratio
GTTTGAAATA | 0.986
GTTTGAACAG | 1.02
GTTTGACCAT | 0.989
GTTTGAGAG | 1.04
GTTTGATATG | 0.956
GTTTGCCGA | 1.06
GTTTGCTAAC | 0.981
GTTTGGACGA | 0.969
GTTTGGACTA | 1.03
GTTTGGCGAA | 1.02
GTTTGGGCTA | 0.996
GTTTGGGTAT | 0.985
GTTTGGTG | 0.997
GTTTGTAGA | 1.02
GTTTGTAGCA | 1.05
GTTTGTAGGT | 0.991
GTTTGTTA | 1.02
GTTTTAATCT | 1
GTTTTACAGC | 0.993
GTTTTAGACT | 1.01
GTTTTATA | 1.02
GTTTTCGAAC | 1.01
GTTTTCTGGG | 0.969
GTTTTGATGA | 1
GTTTTGCCGC | 0.991
GTTTTGGTTC | 0.989

Sequence | switch fluorescence ratio
GTTTTGTTA | 1.02
GTTTTTGTCT | 0.979
TAAAAAAATG | 1.03
TAAAAAGAAT | 0.966
TAAAACATAT | 0.988
TAAAACGTAG | 1
TAAAACTAG | 1.02
TAAAACTATA | 1.06
TAAAACTCAT | 1.03
TAAAAGACCC | 1
TAAAAGACCT | 1.51
TAAAAGAGCG | 1.03
TAAAAGCGTG | 0.984
TAAAAGCTAG | 1.02
TAAAATCGAG | 0.956
TAAAATCGCG | 1.07
TAAAATGAA | 0.994
TAAAATGCG | 1.03
TAAAATTAA | 0.981
TAAAATTTAC | 1.04
TAAACACGTC | 0.929
TAAACATGAT | 1.02
TAAACCGAC | 3.01
TAAACCGGGA | 1.08
TAAACCTTCA | 2.43
TAAACGCAGT | 1.05

Sequence | switch fluorescence ratio
TAAACTCAC | 1.13
TAAACTGGCA | 1.04
TAAACTTAAC | 1.1
TAAACTTACC | 1.06
TAAAGAACGA | 1
TAAAGAATAG | 0.983
TAAAGACCTA | 1.05
TAAAGCCACA | 1.03
TAAAGCGGTT | 1
TAAAGCGTCA | 0.974
TAAAGGAAG | 0.982
TAAAGGGAGG | 1.01
TAAAGTAACG | 0.973
TAAAGTCCTA | 0.969
TAAAGTCGTT | 1.01
TAAAGTGGAT | 0.996
TAAATCGCGC | 1.03
TAAATCTAGT | 1.07
TAAATCTTCA | 1.3
TAAATGACGG | 0.981
TAAATGG | 1.06
TAAATTAGAA | 0.954
TAAATTAGGC | 0.992
TAAATTCGTA | 1.02
TAAATTTCCT | 1.11
TAACAACCGT | 0.998

Sequence | switch fluorescence ratio
TAACAAGATC | 1.02
TAACAAGCAG | 1.05
TAACACGGGG | 1.07
TAACAGAAAA | 1.18
TAACATAGTC | 0.961
TAACCCAGGA | 1.29
TAACCCCTT | 1.07
TAACCGTAGG | 0.983
TAACCTGGCT | 1.07
TAACCTTGTT | 1.02
TAACGAGCAG | 1.02
TAACGATCAT | 0.995
TAACGATTTT | 1.1
TAACGCATTG | 1.09
TAACGCGTGT | 1.01
TAACGGCGCT | 1.01
TAACGGGGT | 0.98
TAACGTAAG | 1.01
TAACGTGTCA | 1.03
TAACGTTCCT | 2.61
TAACTCCTCA | 1.03
TAACTCTGCT | 1.07
TAACTGAATG | 1.02
TAACTGTCGT | 0.982
TAACTTCTAA | 0.999
TAACTTGGCT | 1.02

Sequence | switch fluorescence ratio
TAACTTGTCC | 1.04
TAACTTTTAA | 0.969
TAACTTTTAG | 1.01
TAAGAAAGA | 1.02
TAAGAAGATA | 0.975
TAAGAAGCAG | 0.972
TAAGAATAGA | 0.984
TAAGACGGA | 1.04
TAAGAGCGC | 0.992
TAAGAGTAGG | 1.01
TAAGAGTAGT | 0.996
TAAGAGTTAC | 1.08
TAAGATCCCC | 1.03
TAAGATCTAA | 0.973
TAAGATGAAG | 0.95
TAAGCAAGTA | 1
TAAGCACTGT | 1.16
TAAGCCGGGA | 1.03
TAAGCCTGG | 1.02
TAAGCGCGTA | 0.967
TAAGCGCTAA | 1.01
TAAGCTGTAC | 3.54
TAAGGACCGT | 1.01
TAAGGAGCAC | 1.07
TAAGGAGGGC | 1.09
TAAGGAGGGT | 0.994

Sequence | switch fluorescence ratio
TAAGGAGTGA | 1.26
TAAGGATGAA | 0.975
TAAGGCATCG | 0.966
TAAGGCCTAG | 1.05
TAAGGCGTAT | 1.06
TAAGGCGTCG | 0.991
TAAGGGGAA | 0.999
TAAGGGGCC | 1
TAAGGGTCCA | 1.03
TAAGGTCCCG | 1
TAAGGTGGCG | 0.947
TAAGGTTACA | 0.982
TAAGTACTGT | 1.23
TAAGTACTTA | 1.02
TAAGTAGTGC | 1.01
TAAGTCGGA | 1.1
TAAGTGGGCA | 1.02
TAAGTGTGGG | 0.981
TAAGTTATCG | 0.974
TAAGTTCCGG | 0.986
TAAGTTCGCG | 0.994
TAAGTTCGGA | 1.01
TAAGTTGCGG | 0.971
TAAGTTTAGC | 1.02
TAATACAGAC | 1.03
TAATACGAAC | 1.46

Sequence | switch fluorescence ratio
TAATAGATTT | 0.958
TAATAGTCAC | 0.983
TAATATCGAA | 1.03
TAATATCTCA | 0.978
TAATATTA | 1
TAATCCAAGC | 1.01
TAATCCGTTG | 0.989
TAATCGAGGC | 0.949
TAATCGAGTG | 0.952
TAATCTACGA | 1.02
TAATCTCGGC | 0.933
TAATCTGACA | 1.03
TAATCTGCTA | 1.1
TAATCTGTCC | 1.73
TAATGACCCT | 1.08
TAATGAGGAT | 0.997
TAATGATAGC | 1.03
TAATGCAATG | 0.979
TAATGCCAGA | 1
TAATGGATTT | 1.03
TAATGGGGCT | 0.944
TAATGGGTTG | 1.01
TAATGTCCAC | 1.04
TAATTAACGT | 1.03
TAATTAAGGG | 0.975
TAATTACCAA | 1.04

Sequence | switch fluorescence ratio
TAATTAGGA | 1.01
TAATTAGGTG | 1.17
TAATTATAAG | 1.04
TAATTCACTT | 1.01
TAATTGACCT | 1.13
TAATTGATAT | 0.938
TAATTGATTG | 1.02
TAATTGCCAG | 1.02
TAATTGTGGT | 0.996
TAATTTAGTT | 0.998
TAATTTCTCA | 1.07
TACAACAGGG | 1.1
TACAACGAGG | 1.02
TACAAGAGTG | 0.919
TACAAGGAAA | 1.03
TACAATATTG | 1.02
TACACACAGA | 1.26
TACACATCGA | 1.06
TACACGAAAT | 1.12
